The campaign covered roughly 39,000 compounds. About 220 (0.56%) showed activity. This is one part of the list.
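Note: static incubation at 37 °C against the wild-type strain, values averaged over two biological replicates.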

The assay relates to Escherichia coli K-12 BW25113. Kind of assay: relative growth (OD600 normalised to plate interquartile mean) (fraction); higher = less growth inhibition, active = 0.2 or less. The settings on record: 50 µM; LB; incubation time: overnight (16-24 h).
`Cc1noc(C)c1NC(=O)Nc1ccc2c(c1)C(=O)N([C@@H](C)CO)C[C@H](C)[C@@H](CN(C)S(=O)(=O)c1ccccc1)O2`: the relative growth is inactive: 0.987.

Turning to `COc1ccc(C(=O)NCC(=O)O)cc1`, the relative growth is inactive: 0.987.

On to `COc1ccccc1S(=O)(=O)N[C@@H]1C=C[C@H](CC(=O)N2CCOCC2)O[C@H]1CO`, for which the relative growth is inactive: 0.995.

On to `C[C@H](CO)N1C[C@H](C)[C@H](CN(C)S(=O)(=O)c2ccc(F)cc2)Oc2ccc(NC(=O)CCCN(C)C)cc2C1=O`, for which the relative growth is inactive: 0.998.

`C[C@@H]1CN([C@H](C)CO)C(=O)Cc2cc(NC(=O)CCC(F)(F)F)ccc2O[C@H]1CN(C)Cc1ccc(C(=O)Nc2ccccc2N)cc1`: the relative growth was inactive: 0.982.

For `CO[C@H](CN(C)S(=O)(=O)c1cccc(Cl)c1)[C@@H](C)CN([C@@H](C)CO)S(=O)(=O)c1ccc(Cl)cc1`, the relative growth is inactive: 1.03.

Regarding `O=C(C[C@@H]1CC[C@@H](NC(=O)Nc2ccc3c(c2)OCO3)[C@H](CO)O1)NCCCN1CCOCC1`, the relative growth was inactive: 0.985.

With `CO[C@H]1CN(C)C(=O)c2ccc(NS(=O)(=O)CC(F)(F)F)cc2OC[C@H](C)N(Cc2cccnc2)C[C@@H]1C`, the relative growth was inactive: 1.02.

Consider `C[C@@H]1CCCCO[C@H](CN(C)Cc2ccccc2)[C@@H](C)CN([C@H](C)CO)C(=O)c2cc(NC(=O)c3ccccc3)ccc2O1`, for which the relative growth was inactive: 1.02.

For the compound `COCn1c(=O)[nH]c2ccccc21`, the relative growth was inactive: 0.968.

Take `Cc1nccn1-c1cccc(CN)c1`: the relative growth is inactive: 1.01.

In the case of `CO[C@@H]1CN(C)C(=O)c2ccc(NC(=O)c3ccc(F)cc3)cc2OC[C@H](C)N(C(=O)CN(C)C)C[C@H]1C`, the relative growth was inactive: 1.

In the case of `C[C@@H]1CN([C@@H](C)CO)C(=O)c2cc(NC(=O)CCC(F)(F)F)ccc2O[C@@H](C)CCCCO[C@H]1CN(C)Cc1ccc(Cl)c(Cl)c1`, the relative growth is inactive: 1.06.

Turning to `COc1ccc(NC(=O)Nc2ccc3c(c2)CC(=O)N([C@@H](C)CO)C[C@H](C)[C@H](CN(C)Cc2ccc(C(=O)Nc4ccccc4N)cc2)O3)cc1`, the relative growth is inactive: 0.99.

Turning to `CCCNC(=O)N1C[C@@H](O)COC[C@@H]2O[C@H](CC(=O)NCc3ccncn3)CC[C@H]21`, the relative growth was inactive: 1.01.

On to `C[C@H](CO)N1C[C@H](C)[C@@H](CN(C)CC2CCCCC2)Oc2ccc(NC(=O)Cc3cn(C)c4ccccc34)cc2C1=O`, for which the relative growth is inactive: 0.979.

Take `COc1ccc(NC(=O)Nc2ccc3c(c2)C(=O)N([C@@H](C)CO)C[C@H](C)[C@H](CN(C)Cc2ccc(C(=O)Nc4ccccc4N)cc2)O3)cc1`: the relative growth was inactive: 1.

As to `COc1ccsc1C(N)=O`, the relative growth is inactive: 0.993.

`Cc1noc(C)c1S(=O)(=O)N(C)C[C@H]1Oc2c(NS(=O)(=O)c3ccccc3)cccc2C(=O)N([C@@H](C)CO)C[C@H]1C`: the relative growth was inactive: 1.02.

Regarding `C[C@H]1CN([C@@H](C)CO)C(=O)Cc2cc(NS(=O)(=O)c3ccc(Cl)cc3)ccc2O[C@@H]1CN(C)C`, the relative growth was inactive: 0.986.

Regarding `O=c1nc[nH]c2c1ncn2[C@@H]1O[C@H](CO)[C@@H](O)[C@H]1O`, the relative growth was inactive: 1.03.

For `C[C@@H]1CCCCO[C@H](CN(C)CC2CCCCC2)[C@H](C)CN([C@H](C)CO)C(=O)c2cc(NC(=O)Nc3ccc(F)cc3)ccc2O1`, the relative growth is inactive: 0.984.

Regarding `C[C@H]1CN([C@@H](C)CO)C(=O)c2cc(C#CCN(C)C)cnc2O[C@H]1CN(C)S(C)(=O)=O`, the relative growth is inactive: 1.01.

With `C[C@H]1CN([C@@H](C)CO)C(=O)c2cccc(NC(=O)Nc3ccc(C(F)(F)F)cc3)c2O[C@@H]1CN(C)Cc1ccc2c(c1)OCO2`, the relative growth was inactive: 0.829.

With `CCCCCCCCCCCCCCCCCCCCCCCCCCCCO`, the relative growth is inactive: 1.01.

Turning to `COc1ccc(C(=O)c2ccc(C)cc2)c(O)c1`, the relative growth was inactive: 1.01.

With `C[C@H](CO)N1C[C@H](C)[C@@H](CN(C)C(=O)Nc2cccc3ccccc23)Oc2ccc(NC(=O)CCC(F)(F)F)cc2CC1=O`, the relative growth was inactive: 1.03.

Turning to `CC12CCC(O)CC1=CCC1C2CCC2(C)C(c3cccnc3)=CCC12` (stereo unspecified), the relative growth was inactive: 0.956.

Regarding `COc1ccc(S(=O)(=O)Nc2ccc3c(c2)C(=O)N([C@H](C)CO)C[C@H](C)[C@@H](CN(C)Cc2ccc(Cl)c(Cl)c2)OCCCC[C@@H](C)O3)cc1`, the relative growth is inactive: 1.02.

With `Cc1noc(C)c1S(=O)(=O)Nc1ccc2c(c1)CC(=O)N([C@@H](C)CO)C[C@H](C)[C@@H](CN(C)S(=O)(=O)c1ccccc1)O2`, the relative growth was inactive: 0.973.

Regarding `C[C@H](CO)N1C[C@H](C)[C@H](CN(C)S(=O)(=O)c2cn(C)cn2)OCCCC[C@H](C)Oc2ccc(NS(=O)(=O)c3ccccc3)cc2C1=O`, the relative growth was inactive: 0.99.

Consider `O=C(CN1CCOCC1)NCC[C@@H]1CC[C@@H](NC(=O)c2ccccc2F)[C@H](CO)O1`, for which the relative growth is inactive: 0.994.

As for `C[C@@H]1CN([C@@H](C)CO)C(=O)Cc2cc(NC(=O)Nc3cccc4ccccc34)ccc2O[C@H]1CN(C)Cc1ccncc1`, the relative growth was inactive: 1.01.

In the case of `C[C@@H]1CCCCO[C@H](CN(C)S(=O)(=O)c2ccccc2)[C@@H](C)CN([C@@H](C)CO)C(=O)c2cc(NC(=O)Nc3ccc(C(F)(F)F)cc3)ccc2O1`, the relative growth was inactive: 0.982.

On to `Cc1ccc2nc(Nc3ccccc3)nc(-c3ccccc3)c2c1`, for which the relative growth was inactive: 0.927.

Regarding `NC(=O)NC(=O)Cc1ccccc1`, the relative growth is inactive: 1.07.

For the compound `CCOC(=O)Cc1c(C)[nH]c(=O)[nH]c1=O`, the relative growth was inactive: 1.05.

On to `C[C@@H]1CCCCO[C@H](CN(C)Cc2ccc(C(=O)O)cc2)[C@@H](C)CN([C@@H](C)CO)C(=O)c2cc(NC(=O)C3CCCCC3)ccc2O1`, for which the relative growth was inactive: 1.

Regarding `C[C@H]1CCCCO[C@@H](CN(C)S(=O)(=O)c2cccs2)[C@@H](C)CN([C@@H](C)CO)C(=O)c2cc(NS(=O)(=O)c3cn(C)cn3)ccc2O1`, the relative growth was inactive: 0.987.

Consider `C[C@@H]1CN([C@H](C)CO)C(=O)c2cccc(NC(=O)Nc3ccc(C(F)(F)F)cc3)c2O[C@H]1CN(C)Cc1ccc(Oc2ccccc2)cc1`, for which the relative growth is inactive: 0.967.

On to `CN(C)C(=O)c1cccc(-c2ccc3n(c2=O)C[C@@H]2[C@@H](CO)[C@H](C(=O)NCC4CC4)N[C@H]32)c1`, for which the relative growth is inactive: 0.96.

The values are drawn from the supplement of paper PMC9446081.
